# Assay results: PubChem BioAssay (Tox21)
# Several values for one entry are separate records, joined by “and”; a condition that tells them apart may be missing. Equal entries are not always repeated. The shares of active, inactive and inconclusive entries below differ from those in the screen. For some of these results: Potencies of inconclusive entries are doubtful fits and often do not repeat. A structure can be active in one record and inactive in another. Activity calls are given as the source filed them. Unless noted, calls come from the whole dose curve; as a rule, active = well fitted curve in the direction sought with a large enough effect in the repeat runs; inconclusive = weak or mixed curves; inactive = no such curve, though single readings can be large; an effect the other way counts as inactive or inconclusive.
# What was measured:
# [1] = qHTS assay to identify small molecule agonists of the androgen receptor (AR) signaling pathway in the presence of an antagonist - cell viability counter screen (AID 1259379); note: nearly all actives have a fitted effect of over 25% in size
# Outline: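 Nilutamide-containing (3.0uM final) MDA-kb2 cultures, 3,000 cells/well, were treated with compounds across 15 concentrations. After 16 hr at 37C with no CO2, cell viability was determined by CellTiter-Fluor fluorescence in the luciferase assay wells.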
# [2] = target: Progesterone receptor (Homo sapiens) (UniProt P06401); test: qHTS assay to identify small molecule antagonists of the progesterone receptor (PR) signaling pathway (AID 1346795; active = well fitted inhibition curve with a large enough effect in the signal ratio in the repeat runs, not every such curve was filed as active; inconclusive = weak or mixed curves; the % refers to the signal ratio; for activity change, negative = inhibition: % is set by controls: 0 for no effect and ±100 for the full control effect); settings: PR-UAS-bla HEK293T, beta-lactamase FRET ratio, 16 h; activity change, negative = inhibition: at 92.4 µM (top of the series) unless noted
# Outline: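 Screening used a GripTite HEK293T line with PR-responsive UAS-beta-lactamase. Cells were challenged with compound in the presence of 1 nM R5020 final for 16 hr at 37C; B/G FRET substrate, 2 hr room temperature, fluorescence.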
# [3] = qHTS assay to identify small molecule antagonists of the progesterone receptor (PR) signaling pathway - cell viability counter screen (AID 1346798); note: nearly all actives have a fitted effect of over 50% in size
# Outline: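 Measures cytotoxicity in parallel with the PR antagonist reporter read: HEK293T PR-UAS-bla cells get compound and R5020 for 16 hr, and remaining viable cells are quantified by CellTiter-Glo luminescence.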
# [4] = qHTS assay to identify small molecule agonists of the progesterone receptor (PR) signaling pathway - cell viability counter screen (AID 1346799; calls by dose curve; note: nearly all actives have a fitted effect of over 45% in size)
# Outline: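 Using the same plates as the PR reporter screen, HEK293T PR-UAS-bla cells received compounds for 16 hr at 37C and were then lysed with CellTiter-Glo; luminescence was read 30 min later at room temperature.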
# [5] = qHTS assay to identify small molecule agonists of the estrogen receptor beta (ER-beta) signaling pathway - cell viability counter screen (AID 1259380); note: nearly all actives have a fitted effect of over 30% in size
# Outline: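 Steps: plate ER-beta-UAS-bla HEK293T cells, rest 6 hr; add compounds in DMSO; incubate 16 hr at 37C, 5% CO2; add FRET substrate 2 hr; add CellTiter-Glo, wait 30 min at room temperature; read luminescence.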
# [6] = target: Androgen receptor (Homo sapiens) (UniProt P10275); test: qHTS assay to identify small molecule agonists of the androgen receptor (AR) signaling pathway in the presence of an antagonist (AID 1259381; calls by dose curve; note: nearly all actives have a fitted effect of over 15% in size)
# Outline: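 Reporter-gene luminescence from MDA-kb2 cells exposed 16hr at 37C (0% CO2) to 15-point compound titrations with 3.0uM final nilutamide as AR antagonist.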
# [7] = qHTS assay to identify small molecule antagonists of the estrogen receptor beta (ER-beta) signaling pathway - cell viability counter screen (AID 1259382); note: nearly all actives have a fitted effect of over 55% in size
# Outline: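 Viability is scored by CellTiter-Glo luminescence (30 min, room temperature) in ER-beta-UAS-bla HEK293T wells already read for reporter fluorescence. Compound exposure lasts 16 hr at 37C alongside 1nM 17-beta-estradiol in charcoal-stripped serum medium.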
# [8] = target: Thyrotropin receptor (Homo sapiens) (UniProt P16473); test: qHTS assay to identify small molecule antagonists of the thyroid stimulating hormone receptor (TSHR) signaling pathway (AID 1259385; calls by dose curve; note: nearly all actives have a fitted effect of over 20% in size); settings: TSHR-HEK293 cAMP HTRF, TSH-stimulated antagonist mode; activity change, negative = inhibition: at 92.4 µM (top of the series) unless noted
# Outline: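 TSHR-HEK293 cells were plated and held 18 h at 37C/5% CO2, then given compound plus Ro20-1724 and stimulated with TSH at 1.5 ng/mL final. After 30 min at room temperature, cAMP was detected with cAMP-d2/anti-cAMP-cryptate (1 h) by fluorescence.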
# [9] = qHTS assay to identify small molecule antagonists of the TGF-beta/Smad signaling pathway - cell viability counter screen (AID 1346824); note: nearly all actives have a fitted effect of over 50% in size
# Outline: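 SBE-bla HEK 293T cells were plated overnight at 37 C, then given compounds in DMSO plus TGF-beta1 (added as 0.25 ng/mL solution) for 5 hr. After the bla read, CellTiter-Glo was added to the same wells and luminescence read after 30 min at room temperature.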
# [10] = qHTS assay to identify small molecule agonists of the TGF-beta/Smad signaling pathway - cell viability counter screen (AID 1346829); note: nearly all actives have a fitted effect of over 45% in size
# Outline: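 CellTiter-Glo luminescence readout; SBE-bla HEK 293T cells, overnight plating, compound 5 hr at 37 C/5% CO2, then bla substrate 2 hr RT, then CellTiter-Glo 30 min RT.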
# [11] = qHTS assay to identify small molecule agonists of the TGF-beta/Smad signaling pathway (AID 1346859; active = well fitted activation curve with a large enough effect in the signal ratio in the repeat runs, not every such curve was filed as active; inconclusive = weak or mixed curves; the % refers to the signal ratio); settings: SBE-bla HEK293T, TGF-beta/Smad beta-lactamase reporter, 5 h; activation: at 76.8 µM (top of the series) unless noted
# Outline: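 Beta-lactamase reporter activity downstream of Smad binding elements was measured in stably transfected HEK 293T cells; compounds were incubated for 5 hr, substrate for 2 hr at room temperature.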
# [12] = qHTS assay to identify small molecule antagonists of the TGF-beta/Smad signaling pathway (AID 1346924; active = well fitted inhibition curve with a large enough effect in the signal ratio in the repeat runs, not every such curve was filed as active; inconclusive = weak or mixed curves; the % refers to the signal ratio); settings: SBE-bla HEK293T, TGF-beta/Smad reporter, beta-lactamase ratio; activity, negative = inhibition: at 76.8 µM (top of the series) unless noted
# Outline: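 Read-out was FRET-substrate fluorescence (405 nm excitation; 460 and 530 nm emission) after 2 h at room temperature. Before that, cells carrying a Smad-binding-element beta-lactamase reporter in HEK 293T had been stimulated 5 h at 37 C with TGF-beta1 (0.25 ng/mL addition solution) in the presence of test compound.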
# [13] = qHTS assay to identify small molecule agonists of the estrogen receptor alpha (ER-alpha) signaling pathway in the presence of an antagonist - cell viability counter screen (AID 1259386);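 note: cells exposed to compounds for 22 h at 37 °C before the viability read; nearly all actives have a fitted effect of over 30% in size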
# Outline: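 In this counter screen, compound effects on VM7Luc4E2 viability were tested in the presence of the antagonist ICI-182,780 at 10.0nM final. Compounds were dosed at 15 concentrations, exposure lasted 22hr, and the CellTiter-Fluor signal was read.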
# [14] = target: Progesterone receptor (Homo sapiens) (UniProt P06401); test: qHTS assay to identify small molecule agonists of the progesterone receptor (PR) signaling pathway (AID 1346784; calls by dose curve; note: nearly all actives have a fitted effect of over 30% in size); settings: PR-UAS-bla HEK293T, beta-lactamase FRET ratio, 16 h; activation: at 92.4 µM (top of the series) unless noted
# Outline: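 Seed PR-UAS-bla HEK 293T cells (2% charcoal-stripped FBS), incubate 6 hr at 37C; add compounds in DMSO, 16 hr at 37C; add LiveBLAzer B/G substrate, 2 hr RT; read fluorescence intensity.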
# Potency is the fitted concentration of half-maximal effect; tags give direction and shape of the fitted curve or compound fluorescence and quenching.
# Sequence of UniProt P06401 (P06401 whole entry, looked up): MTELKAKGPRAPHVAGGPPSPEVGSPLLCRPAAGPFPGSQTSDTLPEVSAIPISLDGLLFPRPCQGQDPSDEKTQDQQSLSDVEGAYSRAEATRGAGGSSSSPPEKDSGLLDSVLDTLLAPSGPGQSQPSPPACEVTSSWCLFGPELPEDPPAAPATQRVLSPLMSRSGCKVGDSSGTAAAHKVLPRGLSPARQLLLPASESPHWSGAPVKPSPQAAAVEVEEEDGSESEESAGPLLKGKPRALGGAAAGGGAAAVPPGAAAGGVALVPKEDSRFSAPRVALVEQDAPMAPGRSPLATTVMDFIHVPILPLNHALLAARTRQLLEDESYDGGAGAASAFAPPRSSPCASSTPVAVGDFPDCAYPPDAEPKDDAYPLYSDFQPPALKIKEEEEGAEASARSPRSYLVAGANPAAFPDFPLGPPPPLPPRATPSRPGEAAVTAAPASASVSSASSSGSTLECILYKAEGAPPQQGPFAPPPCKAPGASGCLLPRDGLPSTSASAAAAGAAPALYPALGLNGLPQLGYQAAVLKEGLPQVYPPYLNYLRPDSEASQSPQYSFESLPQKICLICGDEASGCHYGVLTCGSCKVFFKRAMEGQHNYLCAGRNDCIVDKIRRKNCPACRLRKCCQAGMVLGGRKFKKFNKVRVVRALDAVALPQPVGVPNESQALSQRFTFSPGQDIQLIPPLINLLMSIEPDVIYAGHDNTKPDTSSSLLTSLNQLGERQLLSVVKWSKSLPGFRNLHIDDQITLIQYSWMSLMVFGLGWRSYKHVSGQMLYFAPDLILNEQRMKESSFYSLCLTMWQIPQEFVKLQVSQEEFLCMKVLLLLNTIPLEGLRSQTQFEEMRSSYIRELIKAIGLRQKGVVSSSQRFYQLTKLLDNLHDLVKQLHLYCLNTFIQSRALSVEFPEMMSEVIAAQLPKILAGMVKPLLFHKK
# Sequence of UniProt P16473 (P16473 whole entry, looked up): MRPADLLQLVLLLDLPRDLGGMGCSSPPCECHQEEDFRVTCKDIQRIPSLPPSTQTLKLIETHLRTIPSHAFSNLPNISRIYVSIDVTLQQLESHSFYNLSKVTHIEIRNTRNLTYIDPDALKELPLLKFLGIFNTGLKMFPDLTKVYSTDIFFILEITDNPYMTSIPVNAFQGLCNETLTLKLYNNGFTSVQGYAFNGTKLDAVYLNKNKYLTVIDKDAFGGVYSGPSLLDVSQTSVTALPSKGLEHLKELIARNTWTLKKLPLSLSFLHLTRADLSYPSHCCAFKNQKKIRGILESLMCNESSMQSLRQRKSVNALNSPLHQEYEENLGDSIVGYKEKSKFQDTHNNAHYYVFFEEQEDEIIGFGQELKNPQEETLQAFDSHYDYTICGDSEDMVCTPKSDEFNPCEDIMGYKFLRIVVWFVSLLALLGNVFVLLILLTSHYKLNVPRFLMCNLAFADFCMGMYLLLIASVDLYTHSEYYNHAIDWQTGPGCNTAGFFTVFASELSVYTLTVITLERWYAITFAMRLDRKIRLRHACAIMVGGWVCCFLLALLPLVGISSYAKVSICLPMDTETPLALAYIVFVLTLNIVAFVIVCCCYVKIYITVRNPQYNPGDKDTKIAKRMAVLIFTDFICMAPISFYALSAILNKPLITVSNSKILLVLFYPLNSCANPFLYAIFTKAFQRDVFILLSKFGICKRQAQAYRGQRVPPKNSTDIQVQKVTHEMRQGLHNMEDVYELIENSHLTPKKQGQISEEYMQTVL
# Sequence of UniProt P10275 (P10275 whole entry, looked up): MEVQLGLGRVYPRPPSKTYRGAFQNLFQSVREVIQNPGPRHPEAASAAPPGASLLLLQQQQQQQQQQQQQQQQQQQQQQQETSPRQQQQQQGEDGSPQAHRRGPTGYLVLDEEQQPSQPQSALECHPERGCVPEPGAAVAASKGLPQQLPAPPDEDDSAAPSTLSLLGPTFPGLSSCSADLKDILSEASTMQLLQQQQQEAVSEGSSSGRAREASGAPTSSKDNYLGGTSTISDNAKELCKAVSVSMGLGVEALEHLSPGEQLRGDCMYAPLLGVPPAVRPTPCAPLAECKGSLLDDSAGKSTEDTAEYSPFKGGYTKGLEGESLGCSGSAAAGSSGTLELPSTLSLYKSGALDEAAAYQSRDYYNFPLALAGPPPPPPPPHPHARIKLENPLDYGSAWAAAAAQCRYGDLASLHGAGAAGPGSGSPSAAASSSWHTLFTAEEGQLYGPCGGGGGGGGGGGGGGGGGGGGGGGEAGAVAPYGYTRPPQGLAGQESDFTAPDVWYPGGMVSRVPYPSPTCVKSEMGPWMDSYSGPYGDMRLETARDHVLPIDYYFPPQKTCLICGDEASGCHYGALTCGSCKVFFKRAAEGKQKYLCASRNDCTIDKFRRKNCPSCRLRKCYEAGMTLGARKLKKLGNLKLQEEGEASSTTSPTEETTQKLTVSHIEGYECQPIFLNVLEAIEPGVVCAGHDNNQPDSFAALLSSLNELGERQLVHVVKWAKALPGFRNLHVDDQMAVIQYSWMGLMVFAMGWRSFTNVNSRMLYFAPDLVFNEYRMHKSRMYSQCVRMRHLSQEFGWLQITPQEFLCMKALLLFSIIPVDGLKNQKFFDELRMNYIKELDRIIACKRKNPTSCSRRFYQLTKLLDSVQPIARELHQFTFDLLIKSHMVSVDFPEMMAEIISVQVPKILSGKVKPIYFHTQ
smiles,measurement,setting,value
CCC1(CO)COCOC1,Potency,[1],inactive
same,"activity change, negative = inhibition",[2],inconclusive: 11.5%
same,Potency,[3],"inconclusive: 27.2 µM [rising, partial curve, poor fit]"
CC1COc2ccccc2N1C(=O)C(Cl)Cl (stereo not drawn),Potency,[1],"inconclusive: 27.3 µM [cytotoxic, partial curve]"
same,Potency,[2],active: 30.6 µM and active: 24.3 µM
same,Potency,[4],"inconclusive: 27.3 µM [rising, partial curve] and inconclusive: 43.2 µM [rising, partial curve]"
O=c1cc(-c2ccccc2)oc2ccc3ccccc3c12,Potency,[5],active: 24.3 µM
same,Potency,[6],"inconclusive: 3.44 µM [rising, partial curve]"
same,Potency,[7],"inconclusive: 21.7 µM [cytotoxic, partial curve]"
same,Potency,[8],inconclusive: 30.6 µM
same,Potency,[3],active: 21.7 µM
same,Potency,[9],active: 13.8 µM
same,Potency,[10],active: 13.8 µM
same,Potency,[11],"inconclusive: 9.77 µM [rising, full curve, poor fit]"
same,"activity, negative = inhibition",[12],inconclusive: -53.4%
O=c1c(-c2ccc(O)cc2)coc2cc(O)cc(O)c12,Potency,[5],"inconclusive: 23.9 µM [cytotoxic, partial curve] and active: 13.7 µM and inconclusive: 13.3 µM [cytotoxic, full curve]"
same,Potency,[6],"inconclusive: 13.3 µM [rising, partial curve]"
same,Potency,[13],"inconclusive: 33.5 µM [cytotoxic, partial curve, poor fit]"
same,Potency,[2],active: 23.9 µM and active: 17.2 µM and active: 13.3 µM
CC[C@]1(O)C[C@@H]2CN(CCc3c([nH]c4ccccc34)[C@@](C(=O)OC)(c3cc4c(cc3OC)N(C)[C@H]3[C@@](O)(C(=O)OC)[C@H](OC(C)=O)[C@]5(CC)C=CCN6CC[C@]43[C@@H]65)C2)C1,Potency,[1],"inconclusive: 0.168 µM [cytotoxic, full curve, poor fit]"
same,Potency,[13],"inconclusive: 26.6 µM [cytotoxic, partial curve]"
same,Potency,[4],"inconclusive: 119 nM [rising, full curve] and inconclusive: 150 nM [rising, full curve]"
same,Potency,[11],"inconclusive: 23.9 µM [rising, single point]"
same,Potency,[12],"inconclusive: 13.4 µM [rising, partial curve]"
same,"activity, negative = inhibition",[12],inconclusive: 1.77% [at 35.3 µM]
CCOC(=O)/C=C/C(=O)OCC,Potency,[5],"inconclusive: 68.6 µM [rising, single point]"
c1cc(N(CC2CO2)CC2CO2)ccc1OCC1CO1 (stereo not drawn),Potency,[1],"inconclusive: 61.2 µM [cytotoxic] and inconclusive: 68.6 µM [cytotoxic, single point]"
same,Potency,[13],"inconclusive: 43.3 µM [cytotoxic, partial curve]"
same,Potency,[3],"inconclusive: 77 µM [cytotoxic, single point] and inconclusive: 68.6 µM [cytotoxic, single point]"
same,Potency,[12],inconclusive: 49 µM
CCCCCCCCCCCCSC#N,Potency,[5],"inconclusive: 27.3 µM [cytotoxic, single point]"
C/C=C/c1ccc(O)c(OC)c1,Potency,[1],inactive
same,Potency,[4],inactive
same,Potency,[10],inactive
CCCCCCCC[P+](CCCCCCCC)(CCCCCCCC)CCCCCCCC,Potency,[5],active: 8.58 µM
same,Potency,[7],active: 10.8 µM
same,Potency,[8],active: 68.2 µM
same,Potency,[13],active: 2.71 µM
same,Potency,[14],"inconclusive: 15.3 µM [cytotoxic, full curve]"
same,Potency,[2],"inconclusive: 48.3 µM [falling, partial curve]"
same,Potency,[3],active: 15.3 µM
same,Potency,[4],"inconclusive: 9.63 µM [cytotoxic, full curve, poor fit]"
same,Potency,[9],active: 21.7 µM
same,Potency,[10],active: 17.3 µM
same,Potency,[11],inconclusive: 34.5 µM
same,Potency,[12],"inconclusive: 34.5 µM [cytotoxic, partial curve, poor fit]"
C1C[C@@H]2[C@H]3CC[C@H](C3)[C@@H]2C1,Potency,[5],"inconclusive: 68.8 µM [rising, partial curve, poor fit]"
same,Potency,[7],inactive
CC(=O)OC(C)c1ccccc1 (stereo not drawn),Potency,[5],inactive
CC(C)(C)c1cc(C(C)(C)C)c(O)c(C(C)(C)C)c1,Potency,[5],active: 48.6 µM
CCC(OCCCOC)OC(C)=O (stereo not drawn),Potency,[5],inactive
CN(C)CCCN1c2ccccc2Sc2ccc(C(F)(F)F)cc21,Potency,[1],"inconclusive: 33.5 µM [cytotoxic, single point]"
same,Potency,[8],active: 29.8 µM
same,Potency,[2],"inconclusive: 23.7 µM [falling, partial curve]"
same,Potency,[3],"inconclusive: 23.7 µM [cytotoxic, partial curve]"
same,Potency,[11],"inconclusive: 30.1 µM [rising, single point]"
same,"activity, negative = inhibition",[12],inconclusive: -17.7% [at 35.3 µM]
NC(=S)NC(N)=S,Potency,[5],"inconclusive: 38.6 µM [cytotoxic, partial curve, poor fit]"
